# Measurements reported in PubChem BioAssay AID651820 (National Center for Advancing Translational Sciences (NCATS), 2012).
# In all, about 340,000 compounds went through this assay and about 12,000 (3.5%) were called active. The inconclusive results got no clear call from the source; some entries with a clear call stand among them for comparison. Calls follow the shape of the dose curve; as a rule, active = well fitted inhibition curve with a large enough effect; inconclusive = small, poorly fitted or top-dose-only effect, or another doubt; inactive = no such curve, though single readings can be large or run the other way. Potencies of inconclusive entries are left out as doubtful fits.
# Assay: qHTS Assay for Inhibitors of Hepatitis C Virus (HCV)
# Conditions: Huh7.5.1 HCVcc-Cre (HCVcc is cell-culture hepatitis C virus) infection, luciferase reporter, 44 h; series mostly up to 41.8 µM
# Outline: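 Luciferase read-out (15 sec integration) after a 15 min room-temperature substrate step quantifies HCVcc-Cre infection. Cells, 1,000 per well, had compound added 4 h post-plating, then virus at ~0.5 moi, and were cultured 44 h.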
# Potency is read from the fitted curve at half-maximal effect; tags tell the direction and shape of the fitted curve.
row,SMILES,Potency
1,CCc1ccc(CN2CCC(n3nccc3NC(=O)c3ccccc3Cl)CC2)cc1,"inconclusive [inhibitor, partial curve]"
2,Cc1ccc(Nc2nc(N3CCOCC3)nc(N3CCOCC3)n2)cc1,"inconclusive [inhibitor, partial curve]"
3,NC(=O)CC(NC(=O)c1ccccc1)c1ccc(NCCc2ccc(Cl)cc2)c([N+](=O)[O-])c1 (centres undefined),"inconclusive [inhibitor, single point]"
4,CCOc1ccc(C(=O)Nc2ccc(NC(=S)NC(=O)CC)cc2)cc1Cl,"inconclusive [inhibitor, partial curve, poor fit]"
5,COc1ccc(N2CCN(CCNC(=O)Nc3ccc(Cl)cc3)CC2)cc1,"inconclusive [inhibitor, single point]"
6,O=C(Nc1ccc(OC(F)(F)F)cc1)c1ccc2nccnc2c1,"inconclusive [inhibitor, single point]"
7,COc1ccccc1CNC(=O)COC(=O)Cc1c(F)cccc1Cl,inactive
8,O=C(Nc1cccc(-c2cn3cccnc3n2)c1)Nc1ccccc1F,"inconclusive [inhibitor, single point]"
9,COc1ccc(Cc2nc3ccc(S(=O)(=O)N4CCOCC4)cc3[nH]2)cc1OC,"inconclusive [inhibitor, partial curve]"
10,c1ccc(CCNc2nc3ccccc3n3nnnc23)cc1,inactive
11,Oc1ccc(-c2cnc(-c3ccc(O)cc3)nc2)cc1,inactive
12,COc1cc2c(C#CCCO)c(-c3ccsc3)oc(=O)c2cc1OC,active: 10 µM
13,CCc1cc(C(=O)N2CCCC(C(=O)c3ccc(Oc4ccccc4)cc3)C2)n(C)n1 (centres undefined),"inconclusive [inhibitor, single point]"
14,O=C(CCn1cccn1)Nc1ccc2c(c1)OCCO2,inactive
15,COC(=O)c1c(NC(=O)c2ccc(N(C)S(=O)(=O)c3ccc(C)cc3)cc2)sc2c1CCCC2,"inconclusive [inhibitor, partial curve, poor fit]"
16,CC1(c2ccccc2)CC(C)(C)N(C(=O)c2cc([N+](=O)[O-])cc([N+](=O)[O-])c2)c2ccccc21 (centres undefined),"inconclusive [inhibitor, single point]"
17,CNC(=O)N(O)C1N(NC(=O)Nc2ccccc2)C(=S)SC1(C)C (centres undefined),"inconclusive [inhibitor, single point]"
18,COc1ccccc1NC(=O)N(Cc1ccco1)Cc1cc2ccc(C)c(C)c2[nH]c1=O,"inconclusive [inhibitor, partial curve]"
19,COc1ccccc1NC(=O)c1ccc(NC(=O)COC(=O)C2CC2C)cc1 (centres undefined),"inconclusive [inhibitor, full curve, poor fit]"
20,COc1ccc(/C=N/NC(=O)c2ccc(N(C)S(=O)(=O)c3ccccc3)cc2)cc1,active: 12.6 µM
21,Cn1cnnc1SCC(=O)Nc1nc(-c2ccccc2)cs1,"inconclusive [inhibitor, single point]"
22,Cc1ccc(C)c(N2N=C(C(=O)NCCN3C(=O)S/C(=C\c4cccnc4)C3=O)CCC2=O)c1,inactive
23,CC1(C(=O)N2CC3(CC(c4cccc(NC(=O)COc5ccc(Cl)cc5)c4)=NO3)C[C@@H]2C(N)=O)CC1 (some centres undefined),"inconclusive [inhibitor, single point]"

row,SMILES,Potency
1,CC(C)CC(=O)NC(NC(=S)Nc1cccc2cccnc12)C(Cl)(Cl)Cl (centres undefined),"inconclusive [inhibitor, single point]"
2,COc1ccc(NC(=O)CN2CCCC2c2cccs2)cc1S(=O)(=O)N1CCCCC1 (centres undefined),"inconclusive [inhibitor, partial curve]"
3,Cc1ccc(CNC(=O)c2ccc(N3CCCC3=O)cc2)cc1,inactive
4,CC1CCN(CCCNC(=O)c2ccc3c(Cl)c4c(nc3c2)CCCC4)CC1,active: 8.91 µM
5,CCOc1ccccc1Nc1nc(-c2cccnc2)cs1,active: 10 µM
6,Cc1ccc(C2=Nc3ccccc3NC(C)(c3ccc(C)o3)C2)o1 (centres undefined),inactive
7,CSCCC(NC(=O)c1ccc(Cl)cc1Cl)C(=O)NCc1ccncc1 (centres undefined),inactive
8,COC(=O)c1ccc2nc(-c3ccc4c(c3)OCO4)cn2c1,inactive
9,COc1ccc(-n2c(CCc3ccccc3)nnc2SCC(=O)c2ccc(Cl)cc2)cc1,"inconclusive [inhibitor, partial curve]"
10,COC(=O)c1sccc1-n1cccc1C(=O)C(=O)Nc1ccc(F)cc1,"inconclusive [inhibitor, partial curve, poor fit]"
11,CCn1c(SCC(=O)N2CCN(c3cccc(Cl)c3)CC2)nc2ccccc2c1=O,"inconclusive [inhibitor, single point]"
12,O=C(NNC(=O)c1cc(-c2cccnc2)nc2ccccc12)Nc1ccc(Cl)cc1,"inconclusive [inhibitor, single point]"
13,COc1ccc(OC)c(C2C3=C(N=c4s/c(=C\c5cccc(O)c5)c(=O)n42)c2ccccc2CC3)c1 (centres undefined),active: 10 µM
14,O=[N+]([O-])c1ccc(N2CCCC2)cc1NC1CC1,"inconclusive [inhibitor, partial curve]"
15,CCC1CCCCN1C(=O)c1cc(COc2ccc3ncccc3c2)on1 (centres undefined),active: 3.16 µM
16,CCCCn1nc(NC(=O)CC)c2cc3cc(OC)ccc3nc21,"inconclusive [inhibitor, partial curve]"
17,N/C(=N\OC(=O)/C=C/c1ccccc1)c1ccccn1,inactive
18,COc1ccc(S(=O)(=O)N2c3ccccc3OCC2C)cc1 (centres undefined),"inconclusive [inhibitor, single point]"
19,O=C(NCCCN1CCOCC1)c1cc(-c2ccc(Cl)cc2)on1,active: 11.2 µM
20,COc1cc(NC(=O)c2cccc(F)c2)ccc1NC(=O)c1cc2ccccc2o1,"inconclusive [inhibitor, full curve, poor fit]"
21,CCOC(=O)C(C)Sc1nc2c(c(=O)[nH]c(=O)n2C)n1Cc1ccc(Cl)cc1 (centres undefined),active: 2.82 µM
22,CCOC(=O)C(O)(c1ccc(NC(=O)c2ccco2)c(OC)c1)C(F)(F)F (centres undefined),"inconclusive [inhibitor, single point]"
23,COC(=O)c1ccc2c(c1)N(Cc1nc(-c3ccc(Cl)cc3)oc1C)C(=O)C1CCCN21 (centres undefined),"inconclusive [inhibitor, single point]"

row,SMILES,Potency
1,COc1ccc(Cl)cc1NC(=O)CSc1nnc(COc2ccccc2)n1C,"inconclusive [inhibitor, partial curve]"
2,CC(C)C(=O)Nc1cc(S(=O)(=O)Nc2cccc(Cl)c2)ccc1Cl,inactive
3,CCCCNc1c(-c2ccc(SC3CCCCC3)c(OC)c2)nc2ccc(C)cn12,"inconclusive [inhibitor, partial curve]"
4,CCOC(=O)C1(CCOc2ccccc2)CCN(Cc2ccc(OCCO)cc2)CC1,"inconclusive [inhibitor, single point]"
5,CC(=O)CC1OC(=O)C(Br)=C1NCc1ccccc1 (centres undefined),"inconclusive [inhibitor, single point]"
6,CCOC(=O)c1c(NS(C)(=O)=O)sc2c1CCC(C)C2 (centres undefined),"inconclusive [inhibitor, single point]"
7,Cc1cccnc1Nc1nc(-c2ccc(O)cc2)cs1,active: 10 µM
8,COC(=O)c1ccc(C23CC4(C2)[C@H](CN(Cc2cccnc2)[C@@H]4c2ccccc2)C3c2ccccc2)cc1 (some centres undefined),inactive
9,Cc1ccc2c(c1C)NC(C(=O)O)C1CC=CC21 (centres undefined),"inconclusive [inhibitor, single point]"
10,COc1ccc(-c2cc(C(=O)c3c(N)n(C)c(=O)n(C)c3=O)c3ccccc3n2)cc1OC,inactive
11,O=C(N/N=C/c1ccccn1)c1cccc(NC(=O)c2ccc(Cl)cc2)c1,"inconclusive [inhibitor, single point]"
12,Nc1ccccc1OCCOCCOCCOc1ccccc1N,"inconclusive [inhibitor, partial curve]"
13,O=C(Nc1ccc(Cl)c(Cl)c1)Nc1nnc(CSc2ccccc2)s1,"inconclusive [inhibitor, full curve]"
14,c1cncc(-c2nc3c(ccc4ccccc43)[nH]2)c1,"inconclusive [inhibitor, partial curve]"
15,O=C(C1CC1)N1CCc2cc(Br)cc(S(=O)(=O)N3CCCCCC3)c21,"inconclusive [inhibitor, single point]"
16,CC1CCc2nc(NC(=O)C3CCCO3)sc2C1 (centres undefined),inactive
17,O=C(CSCc1nc2ccccc2[nH]1)Nc1ccc2ccccc2c1,"inconclusive [inhibitor, single point]"
18,OCC#Cc1ncc(C(F)(F)F)cc1Cl,"inconclusive [inhibitor, single point]"
19,COC(=O)[C@@H]1C[C@@]2(O)[C@@H](O)[C@@H](O)[C@@H](O)C[C@H]2N1Cc1cc(OC)cc(OC)c1,active: 0.501 µM
20,O=C(N/N=C\c1cc(Cl)ccc1O)c1ccc(S(=O)(=O)N2CCCCC2)cc1,active: 3.55 µM
21,CCOC(=O)CC(=O)CSc1ncnc2c1nnn2-c1ccccc1,"inconclusive [inhibitor, single point]"
22,COc1ccc(O)c(/C=N/NC(=O)CCC(=O)Nc2cccc(C)c2)c1,"inconclusive [inhibitor, partial curve]"
23,COc1ccccc1NS(=O)(=O)c1cc(NC(=O)C2CCCC2)ccc1N1CCOCC1,"inconclusive [inhibitor, single point]"
